From patent US20180127478A1 (published 2018)

Molecular target: T1, shFcRn (ACROBiosystems) (human, UniProt P55899 in part; P61769 in part)
T1 construct: It was amine-coupled to a CM5 chip at 9000 RU
Test: SPR (Biacore T100), shFcRn immobilised on a CM5 chip, pH 6.0, steady-state affinity model
Source text: A control flow cell was blocked with ethanolamine for reference subtraction.

T1 sequence (P55899 24-297 limits assumed, chain 1 of 2): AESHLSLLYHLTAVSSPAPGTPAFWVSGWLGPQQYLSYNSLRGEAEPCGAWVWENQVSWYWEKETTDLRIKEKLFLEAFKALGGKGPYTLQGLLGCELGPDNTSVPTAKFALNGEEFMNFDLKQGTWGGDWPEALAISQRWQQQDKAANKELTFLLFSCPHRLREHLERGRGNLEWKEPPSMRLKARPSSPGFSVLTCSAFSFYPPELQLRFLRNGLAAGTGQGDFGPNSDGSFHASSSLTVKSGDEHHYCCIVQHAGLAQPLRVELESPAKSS
T1 sequence (P61769 21-119 limits assumed, chain 2 of 2, further chain): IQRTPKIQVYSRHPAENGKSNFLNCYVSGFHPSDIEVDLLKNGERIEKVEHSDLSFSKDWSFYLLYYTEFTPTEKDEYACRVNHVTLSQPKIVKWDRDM

B1: hGH-sc(Fc)2 with (G4S)13 linker (Fc fusion)
chain: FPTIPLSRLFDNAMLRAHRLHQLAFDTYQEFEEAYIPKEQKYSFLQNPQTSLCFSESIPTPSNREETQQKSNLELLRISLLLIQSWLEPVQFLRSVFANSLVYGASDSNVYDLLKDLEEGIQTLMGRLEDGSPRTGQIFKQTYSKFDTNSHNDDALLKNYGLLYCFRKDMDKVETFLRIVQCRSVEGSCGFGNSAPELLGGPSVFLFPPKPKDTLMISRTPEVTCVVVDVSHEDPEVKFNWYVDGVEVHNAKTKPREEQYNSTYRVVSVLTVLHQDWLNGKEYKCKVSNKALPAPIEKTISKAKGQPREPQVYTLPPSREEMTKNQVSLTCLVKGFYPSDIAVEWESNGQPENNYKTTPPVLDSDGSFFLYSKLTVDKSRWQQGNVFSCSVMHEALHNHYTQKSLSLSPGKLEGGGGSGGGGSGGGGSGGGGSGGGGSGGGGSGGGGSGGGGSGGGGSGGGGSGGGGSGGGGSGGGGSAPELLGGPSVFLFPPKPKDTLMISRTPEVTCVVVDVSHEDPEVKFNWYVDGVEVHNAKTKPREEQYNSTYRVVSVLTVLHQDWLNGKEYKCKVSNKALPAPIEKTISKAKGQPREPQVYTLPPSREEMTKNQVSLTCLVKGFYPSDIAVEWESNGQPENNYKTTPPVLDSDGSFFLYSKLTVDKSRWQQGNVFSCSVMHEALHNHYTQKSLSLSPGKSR
modifications: N-glycosylation on the CH2 domains (HEK293 expression)
notes: The hGH-Fc junction (EcoRI cloning site) is printed as a drawing, so any extra junction residues are unknown; Produced in HEK293 cells and purified on Protein A; also called sc(Fc)2 fusion protein
With B1 the Kd was 400 nM.
